Variants at the floor of the assay are shown more often than the library holds them.
B1: tRNA (parent)
chain: CUCUCGGUAGCCAAGUUGGUUUAAGGCGCAAGACUUUAAUUUAUCACUACGAAAUCUUGAGAUCGGGCGUUCGACUCGCCCCCGGGAGAUUUUUUCCUCGAGCAA

Variants of: B1
Assay: nonsense suppression (GFP-seq) (ratio to wild type); higher = more function; SUP4oc tRNA, yeast GFP reporter sort-seq
In short: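 Yeast carrying genome-integrated SUP4oc tRNA variants from a library with ~3% random mutations were grown in raffinose/galactose medium with 80 mg/L adenine. Each strain also carried a galactose-driven GFP ochre reporter and RFP. Cells were sorted into GFP/RFP bins, and each bin was Illumina-sequenced (phred ≥30). Nonsense suppression (GFPSEQ) is the bin median GFP/RFP, weighted by each variant's estimated cell share per bin, relative to wild-type SUP4oc; variants needed ≥100 reads and ≥30 cells.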

Nonsense suppression, 0.041:
G28C G61A U63C

Nonsense suppression, 0.0279:
G28A A33U

Nonsense suppression, 1.15:
G28A C82U

Nonsense suppression, 0.0938:
G28A G78C

Nonsense suppression, 0.8:
G28A G61A

Nonsense suppression, 0.208:
G28C G85U

Nonsense suppression, 0.209:
G28A G67A

Nonsense suppression, 0.235:
G28C A60C

Nonsense suppression, 0.975:
G28A

Nonsense suppression, 1.1:
G28A A54U

Nonsense suppression, 0.0331:
G28A U63C G85U
C29A A60G

Nonsense suppression, ≤ 0.026:
C27U U63C C68U U70G
C27U U71A
C27U U71C C77G
C27U U71G
C27U U71G G85C
C27U U76G C81G
G28A A31C
G28A A31C A89C
G28A A31C G88C
G28A A31G G73C
G28A A33G U63C
G28A A33U U63A
G28A A54U U55C
G28A A60C G78C G85C
G28A A74C C80G C81G C82A
G28A A89G
G28A C29G A31U
G28A C34G
G28A C34G G78A
G28A C56A
G28A C56G U70C U76C C79G A89G
G28A C81A
G28A G32C A74C
G28A G32U G69C C75G A87G
G28A G66C
G28A G66C A87U
G28A G66U G78U G84U
G28A G67C U76G
G28A G84A G86C
G28A G86A
G28A U35G G67A G84C G88U
G28A U55A
G28A U57A G69C
G28A U57G C79U
G28A U57G C80U
G28A U71G G86A
G28C A31G C34A C68A
G28C A33U
G28C A33U C82U A89U
G28C A74C C81G
G28C C34A C68G A89G
G28C C83G
G28C G65U
G28C G65U C68A
G28C G66U
G28C G78U
G28C U55A
G28C U55A U63C
G28C U58A G61U G84U
G28C U63G C72G
G28U
G28U A30C A33G A54G U76C C79A
G28U A30G G32A U57G U58G C72U
G28U A31C G65C
G28U A31G A74C
G28U A31G U55G G61C
G28U A33U
G28U A54U C68A C72U C75U
G28U A74G
G28U A87U
G28U A89C
G28U C29G
G28U C29U A30G A31C C34U
G28U C34A C77U
G28U C34U
G28U C79A
G28U C79G
G28U G32C G67U C79G
G28U G32U
G28U G85C
G28U G85U
G28U G88C
G28U U35C
G28U U35G
G28U U55G
G28U U57A U76G
G28U U58C C83A
G28U U63C
G28U U71G G73U
C29A A30C A62G
C29A A30U A60C G65C
C29A A31G G32U
C29A A31U C34A U71A
C29A A31U C34U C56A
C29A A33G
C29A A33G U57C G65A
C29A A54U C56U G66C
C29A A60C
C29A A62U U71C U76A C79G
C29A A74U
C29A C34U U55A G85C
C29A C56A
C29A C56G U70C G78A C81A
C29A C56U
C29A C68G
C29A C77U C82A
C29A C83G
C29A G32A C56U U63C
C29A G32C G85C
C29A G59C
C29A G61U
C29A G65C U71G
C29A G66C C77U C79G
C29A G67A C77G
C29A G73C
C29A G84C
C29A G88A
C29A U35A G84A
C29A U35C G69C C79A
C29A U35G C56A U71A
C29A U55A G84A A87G
C29A U55G
C29A U57A G66C G86U
C29A U57C G61C U71A G78U
C29A U58C
C29A U58G C82A
C29A U63A G84U
C29A U70A C83U
C29A U71A
C29G A30C
C29G A31C U35G
C29G A54C U55A
C29G A54U
C29G A54U G73U
C29G A62C
C29G A74U
C29G A89G
C29G C34A A60C
C29G C34G G69C
C29G C56U
C29G C75G U76A
C29G C75U U76A
C29G C79U C80G
C29G C82A
C29G C82A G86A
C29G C83U
C29G G32A G67U C75A
C29G G59A C80G
C29G G61C
C29G G61C A74C
C29G G61C G65C G85C
C29G G61U A89C
C29G G67U
C29G G69U G88U
C29G G78A
C29G G86C
C29G U35G
C29G U55A G61C
C29G U55C G88A
C29G U57G
C29G U57G C83A
C29G U58G
C29G U63A A74G G84A

Nonsense suppression, 0.191:
G28U G61U

Nonsense suppression, 1.17:
G28C

From the RNAGym collection of RNA variant scans (doi:10.1101/gad.245936.114)
